Data published in PMC4336329 (PLoS ONE, 2015).
In all, about 310,000 compounds went through this assay and about 2,200 (0.71%) showed an effect of 50% or more. The effect is printed as a negative number. The list shows a part of the results.

What follows are molecules tested against human ether-à-go-go-related gene (hERG) potassium channel (human, UniProt Q12809) (assay: primary screen, population patch clamp on CHO cells stably expressing hERG).
human ether-à-go-go-related gene (hERG) potassium channel, sequence (Q12809 whole entry, looked up): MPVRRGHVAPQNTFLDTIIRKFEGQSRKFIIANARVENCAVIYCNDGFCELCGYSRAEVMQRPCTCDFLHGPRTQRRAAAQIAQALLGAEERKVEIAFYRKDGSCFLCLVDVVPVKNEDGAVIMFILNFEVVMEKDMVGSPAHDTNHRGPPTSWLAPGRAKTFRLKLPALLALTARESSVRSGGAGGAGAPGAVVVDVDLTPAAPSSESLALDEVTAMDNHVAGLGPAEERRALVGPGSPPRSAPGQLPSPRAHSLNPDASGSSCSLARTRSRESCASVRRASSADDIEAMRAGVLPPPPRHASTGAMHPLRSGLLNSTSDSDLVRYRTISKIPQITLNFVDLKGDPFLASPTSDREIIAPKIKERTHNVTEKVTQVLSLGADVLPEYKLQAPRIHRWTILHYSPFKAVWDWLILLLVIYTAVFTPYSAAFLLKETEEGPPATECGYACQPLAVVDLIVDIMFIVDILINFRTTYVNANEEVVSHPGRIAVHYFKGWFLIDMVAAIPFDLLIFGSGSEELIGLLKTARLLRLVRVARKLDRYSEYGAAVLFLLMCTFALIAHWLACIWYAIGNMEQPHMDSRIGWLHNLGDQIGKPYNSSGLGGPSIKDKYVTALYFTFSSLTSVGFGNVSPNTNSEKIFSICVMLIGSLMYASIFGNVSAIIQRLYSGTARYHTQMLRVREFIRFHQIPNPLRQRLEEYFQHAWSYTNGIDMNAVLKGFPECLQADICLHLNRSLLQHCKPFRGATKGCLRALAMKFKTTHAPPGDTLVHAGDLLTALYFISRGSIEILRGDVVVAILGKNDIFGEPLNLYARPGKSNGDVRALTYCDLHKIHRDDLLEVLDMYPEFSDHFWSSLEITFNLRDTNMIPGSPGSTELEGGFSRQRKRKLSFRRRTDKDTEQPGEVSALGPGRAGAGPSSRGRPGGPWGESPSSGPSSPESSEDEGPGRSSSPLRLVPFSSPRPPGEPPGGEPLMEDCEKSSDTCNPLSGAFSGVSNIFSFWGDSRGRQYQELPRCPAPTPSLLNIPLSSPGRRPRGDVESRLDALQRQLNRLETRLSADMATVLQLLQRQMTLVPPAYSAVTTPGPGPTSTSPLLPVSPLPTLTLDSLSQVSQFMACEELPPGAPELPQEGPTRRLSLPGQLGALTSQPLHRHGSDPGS

**Q.** For `O=C(O)c1cccc(-n2c(/C=C/c3ccc([N+](=O)[O-])cc3)nc3ccccc3c2=O)c1`, which “hERG current change (%, negative = inhibition) at 1uM” value is on record?
**A.** 4.6%

**Q.** Which “hERG current change (%, negative = inhibition) at 1uM” value does the source give for `Cc1ccc(O)c(-c2cc(-c3ccccc3[N+](=O)[O-])[nH]n2)c1` here?
**A.** 10.4%

**Q.** How did the “hERG current change (%, negative = inhibition) at 1uM” value turn out when `CCNC(=O)c1ccc(C23CC4CC(CC(C4)C2)C3)o1` was run?
**A.** 8.19%

**Q.** Which “hERG current change (%, negative = inhibition) at 1uM” value does the source give for `CC1=C(C(=O)OC(C)C)C(c2cn(-c3ccccc3)nc2-c2cccs2)NC(=O)N1` (stereo not drawn) here?
**A.** 13.6%

**Q.** Which “hERG current change (%, negative = inhibition) at 1uM” value does the source give for `O=C(O)/C=C(\Oc1ccccc1)C1(O)CCCCC1` here?
**A.** 11.4%

**Q.** For `CCOC(=O)C1=C(COC(=O)/C=C/c2ccc(OC)c(OC)c2)NC(=O)NC1C` (stereo not drawn), which “hERG current change (%, negative = inhibition) at 1uM” value is on record?
**A.** 9.07%

**Q.** With `CCc1cccc(CC)c1NC(=O)COC(=O)CCc1cc(OC)c(OC)c(OC)c1` as the molecule, how does the “hERG current change (%, negative = inhibition) at 1uM” value read?
**A.** -0.422%

**Q.** With `CCc1ccc(C(=O)C(C)OC(=O)C2COc3ccccc3O2)cc1` (stereo not drawn) as the molecule, how does the “hERG current change (%, negative = inhibition) at 1uM” value read?
**A.** 0.206%

**Q.** Which “hERG current change (%, negative = inhibition) at 1uM” value does the source give for `Cc1ccc(-n2c(=S)[nH]c3nc4c(cc3c2=O)COC(C)(C)C4)cc1` here?
**A.** 10.1%

**Q.** `CCN(Cc1cnn(C)c1)C(=O)CC1C(=O)NCCN1Cc1cccc(OC)c1OC` (stereo not drawn) was tested. Which “hERG current change (%, negative = inhibition) at 1uM” value did it give?
**A.** 1.98%

**Q.** How did the “hERG current change (%, negative = inhibition) at 1uM” value turn out when `CN(CC(=O)Nc1ccccc1Cl)C(=O)COC(=O)c1ccc(S(=O)(=O)C(F)F)cc1` was run?
**A.** -32.4%

**Q.** Which “hERG current change (%, negative = inhibition) at 1uM” value does the source give for `COc1ccc(CC(=O)Nc2cccc3c2CCCC3)cc1` here?
**A.** 13.5%

**Q.** Which “hERG current change (%, negative = inhibition) at 1uM” value does the source give for `CCCOc1ccc(S(=O)(=O)NCCCN2CCOCC2)c2ccccc12` here?
**A.** -7.58%

**Q.** With `CC(C)C[C@H](NC(=O)c1nc[nH]c1C(=O)NCC(=O)OCc1ccccc1)C(=O)OCc1ccccc1` as the molecule, how does the “hERG current change (%, negative = inhibition) at 1uM” value read?
**A.** 9.45%

**Q.** With `CCCOc1cccc(C(=O)Nc2nnn(CCC)n2)c1` as the molecule, how does the “hERG current change (%, negative = inhibition) at 1uM” value read?
**A.** 7.37%

**Q.** For `COC(=O)c1cc2c(s1)=NC=NP=2(N1CCOCC1)N1CCOCC1`, which “hERG current change (%, negative = inhibition) at 1uM” value is on record?
**A.** 16.3%

**Q.** Which “hERG current change (%, negative = inhibition) at 1uM” value does the source give for `Cc1cc(C)cc(NC(=O)C2CCCN(c3nccc(C)n3)C2)c1` (stereo not drawn) here?
**A.** 5.05%

**Q.** Which “hERG current change (%, negative = inhibition) at 1uM” value does the source give for `CCN(CC)C(=O)c1sc(N)c(C(=O)OC(C)C)c1C` here?
**A.** 7.32%

**Q.** For `CCc1cc(Cl)c(OC)c(C(=O)NC[C@@H]2CCCN2CC)c1O.Cl`, which “hERG current change (%, negative = inhibition) at 1uM” value is on record?
**A.** -18.7%

**Q.** `CC1(C)Cc2c(c(-c3ccco3)[nH]c(=O)c2C#N)CS1` was tested. Which “hERG current change (%, negative = inhibition) at 1uM” value did it give?
**A.** -3.55%

**Q.** With `O=c1c2ccccc2oc2cc(OCc3cccc(F)c3)cc(O)c12` as the molecule, how does the “hERG current change (%, negative = inhibition) at 1uM” value read?
**A.** 12.3%

**Q.** For `Cc1ccc(C2CC(C(F)(F)F)n3ncc(C(=O)NCc4ccco4)c3N2)cc1` (stereo not drawn), which “hERG current change (%, negative = inhibition) at 1uM” value is on record?
**A.** 1.05%

**Q.** How did the “hERG current change (%, negative = inhibition) at 1uM” value turn out when `O=C1N(Cc2ccccc2F)c2ccccc2C12OCCCO2` was run?
**A.** 3.67%

**Q.** Which “hERG current change (%, negative = inhibition) at 1uM” value does the source give for `CC(Oc1ccccc1Cl)c1nnc(N)s1` (stereo not drawn) here?
**A.** 4.77%
